According to PubChem BioAssay AID1468 (National Center for Advancing Translational Sciences (NCATS), 2008):
“And” between values parts separate entries of the source, which are not always exact repeats. Equal entries are not always repeated. Among all 280,000 compounds or so, about 1,100 (0.39%) were called active. The shares of active, inactive and inconclusive entries below differ from those in the screen. Calls follow the shape of the dose curve; as a rule, active = well fitted inhibition curve with a large enough effect; inconclusive = small, poorly fitted or top-dose-only effect, or effect the other way; inactive = flat fitted curve, though single readings scatter. A potency beside an inconclusive call is a rough fit, not a confirmed value. Where a structure was tested more than once in an assay, its records may differ in their call.

Target: Microtubule-associated protein tau (Homo sapiens) (UniProt P10636)
Assay: qHTS for Inhibitors of Tau Fibril Formation, Fluorescence Polarization; also: nearly all actives have a fitted effect of over 55% in size
Details: K18 P301L tau heparin fibrillization, Alexa594 FP, 6 h; series mostly up to 57.7 µM
How it was run: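 Quantitative HTS format: compounds meet 15 uM recombinant K18 P301L tau and Alexa 594-tau tracer in 100 mM sodium acetate pH 7; 20 uM heparin triggers fibrillization at 37 C over 6 hr; FP gives the signal.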
Potency is read from the fitted curve at half-maximal effect; tags tell the direction and shape of the fitted curve.

UniProt P10636, sequence (P10636 whole entry, looked up): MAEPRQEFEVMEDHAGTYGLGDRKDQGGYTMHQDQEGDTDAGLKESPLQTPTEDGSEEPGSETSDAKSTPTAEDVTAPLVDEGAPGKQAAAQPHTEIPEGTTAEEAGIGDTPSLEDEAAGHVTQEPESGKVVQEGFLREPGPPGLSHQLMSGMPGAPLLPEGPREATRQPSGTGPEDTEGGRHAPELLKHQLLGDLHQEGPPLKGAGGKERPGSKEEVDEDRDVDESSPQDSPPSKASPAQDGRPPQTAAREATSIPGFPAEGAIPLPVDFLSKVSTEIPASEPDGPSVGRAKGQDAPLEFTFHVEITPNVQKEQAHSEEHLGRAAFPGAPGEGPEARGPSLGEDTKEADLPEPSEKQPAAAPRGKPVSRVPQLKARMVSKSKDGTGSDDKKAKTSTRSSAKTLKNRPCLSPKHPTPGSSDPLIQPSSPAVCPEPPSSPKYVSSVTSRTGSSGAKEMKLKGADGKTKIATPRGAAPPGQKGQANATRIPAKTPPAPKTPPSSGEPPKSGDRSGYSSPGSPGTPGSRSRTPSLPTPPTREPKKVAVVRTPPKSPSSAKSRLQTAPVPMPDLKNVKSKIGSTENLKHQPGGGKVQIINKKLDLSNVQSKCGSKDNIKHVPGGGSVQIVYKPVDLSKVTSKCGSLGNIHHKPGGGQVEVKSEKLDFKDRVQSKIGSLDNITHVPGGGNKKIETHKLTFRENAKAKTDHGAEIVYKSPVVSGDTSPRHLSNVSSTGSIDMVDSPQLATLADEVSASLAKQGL

| Structure (SMILES) | Potency |
| --- | --- |
| Cc1ccc(CNC(=O)c2ccc(Cn3c(=O)c4ccccc4n(CC(=O)Nc4c(C)cc(C)cc4C)c3=O)cc2)cc1 | inactive |
| O=c1/c(=C\c2ccc(O)cc2)sc2nc(-c3ccccc3)c(-c3ccccc3)n12 | inconclusive: 14.1 µM [inhibitor, partial curve] |
| CCN(CC)S(=O)(=O)c1ccc(Cl)c(NC(=O)COC(=O)c2cccn2C)c1 | inconclusive: 8.91 µM [inhibitor, single point] |
| Cc1cc2cc(CNC(=O)c3cccc([N+](=O)[O-])c3)ccc2[nH]1 | inconclusive: 0.0708 µM [activator, full curve, poor fit] |
| Cc1ccc2[nH]c3c(c2c1)CCc1cn[nH]c1-3 | inconclusive: 39.8 µM [inhibitor, single point] |
| N#CCCn1cc(/C=C(\C#N)c2nc3ccccc3s2)c(-c2ccc(F)cc2)n1 | inconclusive: 5.01 µM [inhibitor, full curve, poor fit] |
| CCCN1C(=O)C(O)(C2COC(C)(C)CC2=O)c2ccccc21 (stereo not given) | inactive |
| Cc1ccc(NC(=O)c2cccc(NC(=O)/C=C/c3ccco3)c2)cc1C | inconclusive: 12.6 µM [inhibitor, partial curve] |
| CC(C)C[C@H](NC(=O)C1OC1C(=O)O)C(=O)NCCCCN=C(N)N (stereo not given in full) | inconclusive: 0.0251 µM [inhibitor, full curve, poor fit] |
| CCC1CCCCN1C(=O)c1ccc2c(c1)N(Cc1cccc(Cl)c1)C(=O)c1ccccc1S2(=O)=O (stereo not given) | inconclusive: 7.94 µM [inhibitor, single point] |
| COc1ccc(NC(=O)CN(Cc2ccccc2)S(=O)(=O)c2ccc(C)cc2)cc1Cl | inconclusive: 2.51 µM [inhibitor, single point] |
| CCn1c2ccccc2c2nnc(N3CCN(c4cc(C)ccc4C)CC3)nc21 | inconclusive: 7.94 µM [activator, single point] |
| CCOc1cc(C2C(C(=O)OC)=C(C)NC3=C2C(=O)c2ccccc23)cc(Cl)c1O (stereo not given) | inconclusive: 31.6 µM [inhibitor, single point] |
| O=c1cc(CO)oc(C(Nc2cccc([N+](=O)[O-])c2)c2ccccn2)c1O (stereo not given) | inconclusive: 25.1 µM [inhibitor, partial curve, poor fit] |
| O=C(Nc1ccc(Br)cc1F)c1cc(S(=O)(=O)NCc2ccc(F)cc2)ccc1F | inconclusive: 11.2 µM [inhibitor, single point] |
| O=c1[nH]cc(N(CCO)CCO)c(=O)[nH]1 | inconclusive: 0.316 µM [inhibitor, full curve] |
| COc1cccc(/C=N/NC(=O)c2cc3c(OC)c(OC)ccc3[nH]2)c1OC | inconclusive: 28.2 µM [activator, partial curve, poor fit] |
| CCNC(=S)N(CCc1c(C)[nH]c2ccc(C)cc12)Cc1ccco1 | inconclusive: 17.8 µM [activator, partial curve] |
| Nc1nc(Nc2cccc(Cl)c2)nc(NCc2ccco2)c1[N+](=O)[O-] | active: 28.2 µM |
| O=C(CSc1ccc(-c2ccco2)nn1)Nc1ccccc1 | inactive |
| O=C1c2ccccc2C(=O)N1CCSc1n[nH]c(=S)s1 | inactive |
| Cn1c(N)c(C(=O)COC(=O)/C=C/c2ccc(OC(F)F)cc2)c(=O)n(C)c1=O | inconclusive: 44.7 µM [inhibitor, single point] |

| Structure (SMILES) | Potency |
| --- | --- |
| COc1ccc(N(C(=O)CNS(=O)(=O)c2ccccc2)C(C(=O)NCc2ccco2)C(C)C)cc1 (stereo not given) | inactive |
| CSc1ccc(/C=N/NC(=O)c2cccs2)cc1 | inconclusive: 11.2 µM [inhibitor, single point] |
| Cc1cccc(NC(=O)CSc2nnc(Cn3cnc4ccccc43)o2)c1 | inconclusive: 1.78 µM [inhibitor, full curve, poor fit] |
| Cc1ccc(-n2ncc3c(NCCCOC(C)C)ncnc32)c(C)c1 | inconclusive: 44.7 µM [inhibitor, single point] |
| COC(=O)C(Cc1ccccc1)NC(=O)C(CC(C)C)NC(=O)OC(C)(C)C (stereo not given) | inactive |
| CCC(C)NS(=O)(=O)c1ccc(OCC(=O)Nc2ccc(F)cc2F)cc1 (stereo not given) | inactive |
| O=C(Nc1ccccc1C(=O)O)/C(=C/c1ccc([N+](=O)[O-])cc1)NC(=O)c1ccc(Br)o1 | inconclusive: 0.398 µM [inhibitor, single point] |
| Cc1ccc(Cn2c(=O)c3cccnc3n(CC(=O)Nc3cccc(C(F)(F)F)c3)c2=O)cc1 | active: 17.8 µM |
| Oc1cc(-n2cccn2)c(O)cc1-n1cccn1 | inconclusive: 14.1 µM [inhibitor, partial curve] |
| CCN(c1cccc(C)c1)S(=O)(=O)c1ccc2c3c(cccc13)C(=O)N2 | inconclusive: 25.1 µM [inhibitor, partial curve] |
| Cc1[nH][nH]c(=O)c1C=Nc1ccc(C(F)(F)F)cc1 | inconclusive: 3.98 µM [inhibitor, single point] |
| Cc1c(NC(=O)c2cc(-c3ccc(Cl)s3)nc3ccccc23)c(=O)n(-c2ccccc2)n1C | inconclusive: 39.8 µM [inhibitor, single point] |
| CCCC(=O)Nc1cc(C)c(O)c(-c2nc3ncccc3o2)c1 | inactive |
| Cc1ccc(NC(=O)c2cc(S(=O)(=O)NCCC3=CCCCC3)ccc2F)cc1F | inconclusive: 15.8 µM [inhibitor, partial curve, poor fit] and inconclusive: 22.4 µM [inhibitor, partial curve] |
| CCc1ccc(C(=O)c2cn(CC(=O)Nc3ccc(F)c(F)c3)c3cc(OC)c(OC)cc3c2=O)cc1 | inconclusive: 1 µM [inhibitor, full curve, poor fit] |
| COc1ccc(Cc2nnc(NS(C)(=O)=O)s2)cc1 | inconclusive: 39.8 µM [inhibitor, single point] |
| CCC(=O)NC(=S)Nc1ccc(Cl)cn1 | inconclusive: 39.8 µM [activator, single point] |
| Cc1cc(Nc2nc3ccccc3nc2Cl)n(-c2ccccc2C)n1 | inconclusive: 20 µM [inhibitor, single point] |
| O=c1cc(-c2ccccc2)[nH]c2ccc(Cl)cc12 | inactive |
| O=C(CCN1CCN(C(c2ccccc2)c2ccccc2)CC1)N/N=C/c1ccc(O)cc1O | inconclusive: 1.78 µM [activator, full curve] |
| COc1cccc(C2CC(c3ccc(Cl)cc3Cl)Nc3nc(N)nn32)c1 (stereo not given) | inconclusive: 10 µM [activator, partial curve, poor fit] |
| CCC(C(=O)Nc1ccc(C(=O)OC)cc1)n1c(=O)c(-c2ccccc2NC(C)=O)nc2ccccc21 (stereo not given) | inactive |

| Structure (SMILES) | Potency |
| --- | --- |
| O=C(Nc1ccc(F)cc1)c1ccc(COc2ccccc2)cc1 | inactive |
| COc1cccc(CNC(=O)C2CCCN(S(=O)(=O)c3ccc4c(ccn4C)c3)C2)c1 (stereo not given) | inconclusive: 25.1 µM [inhibitor, single point] |
| CCCCCCC(=O)Nc1ccc(C(=O)N2CCCC2)cc1 | inconclusive: 39.8 µM [inhibitor, single point] |
| Cc1c(Cl)cccc1-c1ccc(CNc2ccc3[nH]c(=O)[nH]c3c2)o1 | inconclusive: 12.6 µM [activator, partial curve] |
| Cc1c(Cl)ccc2sc(NC(=O)c3ccc(S(=O)(=O)N4CCCc5ccccc54)cc3)nc12 | inconclusive: 20 µM [inhibitor, partial curve] |
| Cc1cc(-c2n[nH]c(=S)n2/N=C/C(Br)=C/c2ccccc2)n[nH]1 | inconclusive: 15.8 µM [inhibitor, partial curve] |
| S=C(NCCc1ccccc1)NN=C1CCCCCC1 | inactive |
| CCOC(=O)CNC(=O)c1cc(C)oc1C | inconclusive: 39.8 µM [inhibitor, single point] |
| CC(C)CCCC(C)C1CCC2C3CC=C4CC(O)CC[C@@]4(C)C3CC[C@@]12C (stereo not given in full) | inactive |
| CCOc1ccc(NC(=O)Cn2c(=O)n(Cc3ccco3)c(=O)c3oc4ccccc4c32)cc1 | inconclusive: 11.2 µM [inhibitor, partial curve, poor fit] |
| CN(C)c1ccc(-c2noc(C3CCN(C(=O)Nc4ccc(Cl)cc4)CC3)n2)cc1 | inconclusive: 44.7 µM [inhibitor, single point] |
| Cc1ccc(S(=O)(=O)Nc2cccc(Oc3cnccn3)c2)cc1 | inactive |
| COc1cc2cc(CN(Cc3nnnn3Cc3ccco3)C3CCCCC3)c(=O)[nH]c2cc1OC | inconclusive: 12.6 µM [inhibitor, partial curve] |
| O=C1c2ccccc2C(=O)C12OC2c1ccc(Cl)cc1Cl (stereo not given) | inconclusive: 28.2 µM [inhibitor, partial curve, poor fit] |
| CC1CN(C(=O)Nc2ccc(C(=O)NCCc3ccccc3)cc2)c2ccccc2S1 (stereo not given) | inconclusive: 0.178 µM [inhibitor, partial curve, poor fit] |
| C=CCn1c(-c2ccc3ncccc3c2)n[nH]c1=S | inactive |
| CCOC(=O)c1ccc(NC(=O)c2cccc(S(=O)(=O)N3c4ccccc4CC3C)c2)s1 (stereo not given) | active: 8.91 µM |
| COc1ccc(-c2nc3ccccc3c(=O)n2NC(=S)N(C)C)cc1 | inconclusive: 25.1 µM [inhibitor, single point] |
| Clc1cccc(N2CCN(c3nc4ccccc4n4cnnc34)CC2)c1 | inactive |
| COc1ccc(-n2nc3ccc(NC(=O)c4ccc(-c5cc(Cl)ccc5Cl)o4)cc3n2)cc1 | inconclusive: 28.2 µM [inhibitor, partial curve, poor fit] |
| COc1ccccc1/C=C/c1nc(C#N)c(N2CCCCC2)o1 | inconclusive: 15.8 µM [activator, partial curve] |
